# Assay results published in ChEMBL document CHEMBL4888484, “Replenishing the malaria drug discovery pipeline: Screening and hit evaluation of the MMV Hit Generation Library 1 (HGL1) against asexual blood stage Plasmodium falciparum ,using a nano luciferase reporter read-out” (2022).
# Screen size: about 150,000 compounds; about 540 (0.36%) showed an effect of 50% or more. The list shows a part of the results.
# System: Plasmodium falciparum
# Experiment: Primary screen in NF54 nanoGlo assay, in single point, at 2uM, 72h; a lower Z score goes with more inhibition
# Format: functional, Erythrocyte
# Conditions: timepoint 72 hour
Compound,% Inhibition,Z score
C#CCCCCC(=O)Nc1ncccc1Cl,30%,-0.86
CC(=O)Nc1ccc(S(=O)(=O)N[C@H]2CO[C@H]3[C@@H]2OC[C@H]3OC(=O)Nc2ccccc2)cc1,26%,-3.04
CCCc1cc(-c2nc([C@H]3CCOC3)no2)cs1,-17%,2.17
Nc1nnc(N[C@H]2CCc3ccccc32)[nH]1,-11%,1.35
Cc1cc(=O)n(CC(=O)N(C)c2cccc(Cl)c2)c(Nc2cccc(F)c2)n1,-11%,1.58
CCCCNC(=O)c1nc2cccnc2n(C)c1=O,1%,-0.15
Cc1nc([C@H]2CCCN2CCN2C(=O)c3ccccc3C2=O)cs1,-16%,1.98
COc1ccc(/C=C/CN2CCC[C@H](CNC(=O)c3cc(C(F)F)[nH]n3)C2)cc1,4%,-0.64
CC1(C)NC(=O)N(CCCn2cc(Cl)cn2)C1=O,-12%,1.19
Cc1cnc(CN2C[C@]3(CCCN(c4cc(C(N)=O)ccn4)C3)CCC2=O)cn1,-17%,2.19
Cc1ccc2c(c1)c(-c1cc(NCC(=O)O)nc3[nH]ccc13)nn2C,4%,-0.7
Cc1cncc(Br)c1NC(=O)C(F)F,-8%,1.58
CC(C)[C@@H]1N(C(=O)c2cn(CC3CC3)nn2)CC12CCCC2,-14%,2.08
CC(=O)N1CCN(CC(=O)N2CCC[C@H]2c2cccs2)CC1,-1%,0.21
C[C@H]1CN(c2ncnc3c2CN(C)CC3)CC(C)(C)O1,-3%,0.39
CC(C)n1cc(NC(=O)NCCOc2ccccc2)nn1,-2%,0.21
Cc1cc(CN(C)S(=O)(=O)[C@H]2CCOC2)no1,4%,-0.65
COCCN(C)CC(=O)N1CC[C@@H]2OCc3cccc(c3)Oc3cncc(c3)C(=O)NCCCC(=O)N[C@H]2C1,-10%,1.28
Cc1sc(CN2C(=O)CCC2=O)nc1-c1c(F)cc(F)cc1F,-9%,0.85
COc1ccccc1C1=NS(=O)(=O)N(C)C(C(=O)N(C)Cc2ccccc2)=C1,2%,-0.39
CC(CCn1cncn1)NC(C)c1cc2cc(Cl)ccc2o1 (configuration not stated),12%,-1.27
CN(C)C(=O)C1CCC(CNC2CCCC(C(F)(F)F)C2)O1 (configuration not stated),6%,-0.93

Compound,% Inhibition,Z score
COc1ccc(C(=O)N2C[C@@H]3C[C@H](C2)c2c(NC(=O)c4ccc5c(c4)OCO5)ccc(=O)n2C3)cc1,3%,-0.4
Cc1noc(C)c1S(=O)(=O)N1CC(=O)Nc2ccccc21,12%,-1.43
NC[C@H]1CCCCN1C(=O)c1cc(Oc2ccccc2)ccn1,-3%,0.49
Cc1c(C(=O)N2CCCCCC2)sc2nc(-c3ccccc3)cn12,12%,-1.52
Cc1csc(C(=O)NCc2cn(-c3cccnc3)nn2)c1,-7%,1.08
CC1(C)CN(C(=O)c2cncc(O)c2)C[C@@](C)(C(F)(F)F)O1,-21%,3.03
Cc1ccc([C@@H](O)CNC(=O)C2(N3CCCC3)CCCCC2)cc1,-2%,0.26
O=C(COc1ccc(F)cc1)Nc1cccc(-c2ccc3ccccc3n2)c1,12%,-1.41
CCN(C(=O)c1cc2c(s1)CCCCCC2)[C@H]1CCS(=O)(=O)C1,8%,-1.57
CCCCn1nnnc1CN(C)[C@H]1CCCN(Cc2noc(C)n2)C1,-11%,1.53
Cc1ccc(S(N)(=O)=O)cc1NC[C@@H]1CC=CCC1,10%,-0.97
CN1CCCN(CCCCC2CCOCC2)CC1=O,3%,-0.38
Cc1nc(C(C)C)sc1C(=O)N(C)C[C@H]1COc2ccccc2O1,-8%,0.89
Cc1cc([C@H]2C[C@H]3CC[C@@H](C2)N3C(=O)Cn2ccnc2)ccc1F,-15%,2.12
Cc1nc(C(=O)N(C)Cc2cc(-c3cccs3)n[nH]2)cs1,-4%,0.85
O[C@H](c1cncc(Br)c1)C(F)(F)F,1%,-0.14
OCCn1ncnc1-c1ccc(CN2CCCCC2)cc1,14%,-1.87
Cc1cc(C)n(C[C@@H](C#N)CCC#N)n1,1%,-0.26
COCCNC(=O)C1CCC(c2cccc(C)c2)N(C(=O)NC(C)C)C1 (configuration not stated),-11%,1.5
CN1CCCN(C(=O)CCc2ccc3ccn(C)c3c2)CC1,-10%,1.13
Cc1ccc(-c2c(C)nn3c2NC(=O)CCC3=O)cc1S(=O)(=O)NCc1ccccn1,0%,0.01
CC(=O)N1CCC(N2CCC[C@H]2c2nc(-c3ccc(F)cn3)no2)CC1,-7%,1.35

Compound,% Inhibition,Z score
O=C(c1cnccn1)N1CC=C(c2cccc3ccccc23)CC1,3%,-0.38
COc1ccc(C2c3[nH]c4ccccc4c3CC3C(=O)N(c4ccccc4)C(=O)N32)cc1 (configuration not stated),-3%,0.44
Cc1nnsc1CN(C)C[C@H](O)CO,1%,-0.21
CCCc1c([C@H]2CCOC(C)(C)C2)nc(N)c(C#N)c1-c1c[nH]cn1,-14%,1.77
Cc1cc(C)n(-c2ccnc(NCc3cccc(Br)c3)n2)n1,-7%,0.75
Cn1c(=O)c2c(-c3ccc(Br)cc3)n(-c3ccccn3)cc2n(C)c1=O,-5%,0.83
Cc1n[nH]c(C)c1-c1cc(C2CC2)c(C#N)c(N)n1,-13%,1.77
Cc1ccc(C(=O)N2CCN(S(=O)(=O)c3cc4c(cc3Cl)NC(=O)[C@H](C)O4)CC2)cc1,-12%,1.17
Cc1cc(C(=O)Nc2cn(CC(C)C)nc2C(F)F)cc(O)n1,-3%,0.5
O=C(O)[C@H]1CN(C(=O)CCC2CCOC2)C[C@@H]1c1ccc(Br)cc1 (some centres not stated),20%,-2.58
OCCn1nc(Cc2cccnc2)nc1-c1ccc2c(c1)OCCO2,0%,0
COCCc1nnc(NC(=O)c2snnc2C)o1,-3%,0.45
COCCN1CC2(CCC1=O)CCN(Cc1cnc(C(C)C)nc1)CC2,0%,0.01
CCCCN1CCn2nc(CNc3cc(C)nc(C(C)C)n3)cc2C1,4%,-0.72
CN(C)C[C@H]1CN(CC(=O)NCCC2=CCCCC2)CCO1,-6%,0.63
CC(=O)N1CCC(NC(=O)N2CC[C@@H](O)[C@H]2c2ccc(Cl)cc2)CC1,-14%,1.57
CN(CCc1ccccn1)Cc1nnc2n1CCCCC2,-25%,3.15
CN(C)c1nc2c(c(NCCc3nncn3C)n1)CCCC2,-9%,0.87
O=C(c1cccc(C(F)F)c1)N1CCOC2(CCC2)C1,-11%,1.52
CCc1nc(C)c(CNS(=O)(=O)N2CCN(C)CC2)s1,-14%,2.35
Cc1nc(CN(C)C(=O)c2ccc3c(c2)CCO3)cs1,-8%,1.48
O=C(NC1CCCC1)c1cc2n(n1)C[C@@H](c1ccc3c(c1)OCO3)OC2,4%,-0.73

Compound,% Inhibition,Z score
CC[C@H](NS(=O)(=O)c1sc2c(c1C(=O)O)CCNC2)c1cccnc1,-10%,1.15
CCNC(=O)N1CCC(n2cc(CN3CCC[C@H]3c3nccs3)nn2)CC1,-3%,0.39
CC1(C)CCc2nnc(-c3cccc(S(=O)(=O)N4CCCC4)c3)n2C1,-2%,0.3
CCCCn1nnnc1Cn1ccc(C)cc1=O,-5%,0.91
Cc1nc(CN2C[C@H](c3ccccc3)C(C)(C)C2)co1,-9%,1.48
O=C(c1cnccn1)N1C[C@H]2CC[C@@H](C1)N(C(=O)c1ccc3[nH]nnc3c1)C2,1%,-0.07
CC(C)(CNc1ccc(C(=O)N2CCc3ccccc32)cn1)NS(C)(=O)=O,-14%,1.89
COc1ccc(NC(=O)Cn2c(=O)c3cc(C4CC4)nn3c3ncccc32)cc1Cl,-21%,2.22
CC1CCC(O)(CN(C)C2CCCC2S(C)(=O)=O)CC1 (configuration not stated),0%,0.01
Cc1cnc2c(cnn2CC(=O)NCc2cccc(N3CC=CC3)c2)c1,-17%,1.78
COC1(c2noc([C@@H](c3ccccc3)N(C)C)n2)CCOCC1,-15%,1.98
CC[C@@H](CC#N)NC(=O)Nc1cc(C#N)ccc1Cl,-11%,0.92
CN(CCN(C)C1CC1)C(=O)C[C@H](c1ccc(O)cc1)C1CC1,-6%,1.1
COc1ccc(C(=O)NC(C)(C)CO)cc1,-5%,0.71
Cc1nnc2n1[C@@H](C)CN(C(=O)c1cncc(Cl)c1)C2,-14%,1.23
CN(Cc1cn2c(n1)CCCC2)C(=O)c1cnn2ncccc12,-41%,4.82
COCCCN(Cc1ccc(OC)cc1)C[C@H](O)COCC(C)C,3%,-0.47
NCc1cc(-c2cccs2)nn1C1CCCC1,-10%,1.17
Cn1cncc1C(=O)N[C@H]1CC=CC[C@@H]1C(N)=O,3%,-0.45
CC1C(C(F)(F)F)CCCN1C(=O)c1ccc2[nH]c(=O)n(C)c2c1 (configuration not stated),-11%,1.72
